From article PMC6919601, “Identification of Plasmodium dipeptidyl aminopeptidase allosteric inhibitors by high throughput screening” (PLoS ONE, 2019) come the findings set out here.

The campaign covered roughly 110,000 compounds. About 230 (0.21%) showed an effect of 50% or more. The list shows a part of the results.
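Also: 30 min substrate incubation versus DMSO and 10 µM JCP410 controls.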

DPAP1, sequence (Q8IIJ9 whole entry, looked up): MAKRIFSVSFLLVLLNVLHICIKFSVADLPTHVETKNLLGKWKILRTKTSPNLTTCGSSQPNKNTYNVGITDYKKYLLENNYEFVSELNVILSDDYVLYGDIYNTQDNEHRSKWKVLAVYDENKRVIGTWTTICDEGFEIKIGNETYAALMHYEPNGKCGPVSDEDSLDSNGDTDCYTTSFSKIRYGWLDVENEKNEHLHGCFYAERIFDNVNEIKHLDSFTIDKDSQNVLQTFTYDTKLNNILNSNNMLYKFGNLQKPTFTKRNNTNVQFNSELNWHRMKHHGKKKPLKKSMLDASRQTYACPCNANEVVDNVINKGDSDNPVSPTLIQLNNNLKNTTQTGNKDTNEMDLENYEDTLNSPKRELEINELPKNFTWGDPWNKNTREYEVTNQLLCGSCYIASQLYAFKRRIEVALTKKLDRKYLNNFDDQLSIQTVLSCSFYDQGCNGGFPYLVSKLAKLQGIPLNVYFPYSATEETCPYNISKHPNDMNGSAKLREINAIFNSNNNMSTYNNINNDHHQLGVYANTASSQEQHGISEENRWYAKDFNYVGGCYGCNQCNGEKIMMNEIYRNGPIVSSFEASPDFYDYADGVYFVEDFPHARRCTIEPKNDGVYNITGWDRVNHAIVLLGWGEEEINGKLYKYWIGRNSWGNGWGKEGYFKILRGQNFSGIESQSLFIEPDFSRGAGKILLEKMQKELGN

The test addresses DPAP1 (Plasmodium falciparum, UniProt Q8IIJ9). As to the kind of experiment: primary screen, percent inhibition; read by cleavage of a fluorogenic dipeptide substrate; higher = more effect of the substance. More on the design: species or system P. falciparum D10 trophozoite lysates; single well.
As for `COc1ccc(OC)c(NC(=O)c2c(Br)cnn2C)c1`, the “% Inhibition @ 10 uM” value is on record as 19%.
With `CCCCSC1=C(C#N)C(=O)NC(c2ccccc2O)S1` (centres unmarked), the “% Inhibition @ 10 uM” value was found to be 0.0289%.
Regarding `Cn1c(=O)c2c(nc(SCC(=O)NC(C)(C)C)n2C)n(C)c1=O`, the “% Inhibition @ 10 uM” value came out at 3.99%.
`O=C1C2CCCN2C(=O)N1CCN1CCN(c2cccc(Cl)c2)CC1` (centres unmarked): the “% Inhibition @ 10 uM” value is -0.0619%.
Take `Cc1ccc(C2=NN(C(=O)C3CCCO3)C(c3ccccc3F)C2)cc1` (centres unmarked): the “% Inhibition @ 10 uM” value is listed as 3.01%.
As for `CC(NC(=O)c1cc2ccccc2oc1=O)c1ccccc1` (centres unmarked), the “% Inhibition @ 10 uM” value is reported as 1.25%.
Then `Cc1ccc2c(c1)[C@@H]1CN(C)CC[C@@H]1N2C(=O)CCCN1C(=O)c2ccccc2C1=O`, with 3.57%; and `Cc1ccc(NC(=O)C2C(=O)N(C)c3ccccc32)cc1` (centres unmarked), with 40.2%; and `COC(=O)c1sccc1NC(=S)N1CCCC(C)C1` (centres unmarked), with -5.77%.
Then `COC(=O)c1ccc(Cn2nc(-c3ccccc3)ccc2=O)cc1`, with 2.41%; and `CCS(=O)(=O)c1nc(S(=O)(=O)c2ccc(Cl)cc2)c(N2CCOCC2)s1`, with -2.25%.
For `CCOc1ccc(C(=O)NCCCN(C)C)cc1`, the “% Inhibition @ 10 uM” value was -4.75%.
Turning to `CCOc1ccc(N(C(C)C(=O)N2CCN(C)CC2)S(C)(=O)=O)cc1` (centres unmarked), the “% Inhibition @ 10 uM” value was -0.992%.
Then `O=C(Nc1ccc(N2CCOCC2)cc1)c1ccccc1`, with 0.431%; and `CCCC1=NN(C(=O)c2cccc(OC)c2)C(O)(C(F)(F)F)C1` (centres unmarked), with 8.75%.
As to `CSC1=N/C(=C\c2cn(C)c3ccccc23)C(=O)N1C`, the “% Inhibition @ 10 uM” value was 0.76%.
Turning to `Cc1cc(C(=O)N2CCN(c3cccc(C)c3C)CC2)ccc1[N+](=O)[O-]`, the “% Inhibition @ 10 uM” value is recorded as -4.03%.
For `O=C(c1cccc(Cl)c1)N1CCN(c2cccc(Cl)c2)CC1`, the “% Inhibition @ 10 uM” value is reported as -3.74%.
In the case of `Cn1c(=O)n(C)c2cc(NC(=O)c3cccs3)ccc21`, the “% Inhibition @ 10 uM” value is -2.67%.
`CCn1c2ccccc2c2cc(CN(C)CC(O)c3ccccc3)ccc21` (centres unmarked): the “% Inhibition @ 10 uM” value is listed as -7.18%.
On to `O=C1C2CC=C(Cl)CC2C(=O)N1c1ccc(O)cc1` (centres unmarked), for which the “% Inhibition @ 10 uM” value is on record as 1%.
`OC(CN1CCOCC1)c1ccc(C2CCCC2)cc1` (centres unmarked): the “% Inhibition @ 10 uM” value is listed as -5.07%.
Turning to `COc1cc2c(C(=O)N3CCCCC3C)cn(C)c(=O)c2cc1OC` (centres unmarked), the “% Inhibition @ 10 uM” value was -0.228%.
The value for `Cc1ccc(C2=NN3C(C2)c2ccccc2OC3c2ccc(O)cc2)cc1` (centres unmarked) was 19.8%; that for `NC(=O)C1CCN(C(=O)c2cnn(-c3ccccc3)c2-n2cccc2)CC1` was 0.137%; that for `COc1cccc(-n2ccc(OC)c2SC)c1` was 3.8%.
`Cc1ccc(-c2cc(C(=O)NC3=NCCS3)c3ccccc3n2)s1`: the “% Inhibition @ 10 uM” value is 6.7%.
With `Cc1cc(C)nc(N2C(=O)CC(C(=O)O)N=C2NCCc2c[nH]c3ccccc23)n1` (centres unmarked), the “% Inhibition @ 10 uM” value was 7.95%.
For the compound `COC(=O)C1=C(C)N(CC(C)C)C(=O)/C1=C\c1ccc(OCc2ccccc2)cc1`, the “% Inhibition @ 10 uM” value was found to be 0.131%.
